81 molecules from ChEMBL document CHEMBL1201862, “PubChem BioAssay data set” (2004) can be followed below.

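Cells were grown in 96-well plates and exposed to each compound for 48 hours at five concentrations; endpoints were interpolated linearly between bracketing concentrations, or set to the highest concentration if not reached. GI50: concentration for 50% inhibition of growth.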 The source made the active and inactive calls. Cut-off read from the data, not from the text of the source: active = GI50 up to about 1.1 µM and inactive = higher.

This test deals with NCI-H322M. The experiment in a line: DTP human tumour cell line panel, 48 h.
What is called GI50 is the concentration giving 50% growth inhibition. Consider `O=c1[nH]c(=O)n(C2CC(O)C(CO)O2)cc1/C=C/Br` (stereo unspecified), for which the GI50 was inactive: > 100 µM.
`CC(C)CC1c2[nH]c3ccccc3c2C[C@H]2C(=O)NC(CCCCNC(=O)OC(C)(C)C)C(=O)N12` (stereo partly specified): the GI50 was inactive: 44 µM.
With `COC[C@@H](Cc1ccc(OC)c(OC)c1)[C@@H](COC)Cc1ccc(OC)c(OC)c1` the figure was inactive: > 100 µM.
To `O=C1/C(=C/c2ccc(O)c(O)c2)CCC/C1=C\c1ccc(O)c(O)c1` belongs inactive: 9.95 µM; to `CN(C)c1ccc(/C=C/C(=O)c2ccc(O)cc2)cc1`, inactive: 43.5 µM.
With `CCCCNN` the figure was inactive: > 100 µM.
With `O=C(O)c1ccc([N+](=O)[O-])c(P(=O)(O)O)c1`, the GI50 was inactive: > 100 µM.
To `c1ccc(-c2cn3c(nc4ccccc43)c(-c3ccccc3)n2)cc1` belongs inactive: > 76.2 µM; to `CCN(CC(=O)O)CC(=O)O`, inactive: > 100 µM.
To `O=C(O)CCC1(C(=O)O)CCC(=O)c2ccccc21` (stereo unspecified) belongs inactive: > 100 µM; to `Cc1csc2nc(-c3ccc(Cl)c([N+](=O)[O-])c3)c(/C=N/NC(=N)N)n12`, inactive: 1.63 µM.
To `COc1ccc(-c2c(CN3CCOCC3)sc3nc4ccccc4n23)cc1` belongs inactive: 30.1 µM; to `Cn1c(=O)c2[nH]cnc2n(CC(=O)O)c1=O`, inactive: > 100 µM; to `O=[N+]([O-])/C=C1\COCc2cc3c(cc21)OCO3`, inactive: 92 µM.
Turning to `O=C(OCCNC(=O)N1CC1)OCCNC(=O)N1CC1`, the GI50 was inactive: > 10 µM.
On to `O=C(CN1CCCCC1)c1ccc2c(c1)Sc1ccccc1O2`, for which the GI50 was inactive: 14.6 µM.
With `CC(=O)N(CCc1ccccc1)C(C#N)c1ccc(OCCCCCCCCCCOc2ccc(C(C#N)N(CCc3ccccc3)C(C)=O)cc2)cc1` (stereo unspecified) the figure was inactive: 91.4 µM.
For `C[n+]1c2ccccc2c(CNC(CS)C(=O)O)c2ccccc21` (stereo unspecified), the GI50 is inactive: 41.9 µM.
`CC1=NC(=Cc2ccc([N+](=O)[O-])cc2)C(=O)N1n1c(-c2ccccc2)nc2ccccc2c1=O`: the GI50 is inactive: 58.6 µM.
With `CCOC(=O)C1=C(OC(OCC)C(CC)[Se]c2ccccc2)CCCC1` (stereo unspecified) the figure was inactive: > 100 µM; with `CC1=C(C)C2(C#N)C(=O)N3C(=NC(c4ccco4)NC3c3ccco3)C2(C#N)C(c2ccco2)N1` (stereo unspecified), inactive: > 100 µM; with `Cn1c(N)nc2c(nc(OCc3ccccc3)n2C2OC(CO)C(O)C2O)c1=O` (stereo unspecified), inactive: > 100 µM.
For the molecule `C(=N\Nc1ccc(-c2nc3ccccc3[nH]2)cc1)/c1c(-c2ccc(Cc3ccccc3)cc2)[nH]c2ccccc12`, the GI50 is inactive: 8.73 µM.
In the case of `CC(C)(Oc1ccc(/C=C/C(=O)c2ccc(Cl)cc2)cc1)C(=O)Nc1c(Cl)cccc1Cl`, the GI50 is inactive: 74.1 µM.
With `NS(=O)(=O)c1ccc(/N=N/c2c(O)c(C(=O)O)cc3ccccc23)cc1` the figure was inactive: > 100 µM; with `COc1cccc(N2C(=O)/C(=C\c3ccccc3)SC2c2cc(OC)c(OC)c(OC)c2)c1` (stereo unspecified), inactive: 31 µM; with `O=c1[nH]c2c3ccccc3ccc2c2cc3c(cc12)OCO3`, inactive: > 100 µM.
To `CCO[C@H]1C[C@@H](c2ccccc2)[C@]2(C)C[C@H](C(=O)OC)ON2O1` belongs inactive: > 100 µM; to `O=c1[nH]c(=O)n(C2CC(O)C(CO)O2)cc1OCCCc1ccccc1` (stereo unspecified), inactive: > 100 µM; to `COc1ccc(CNc2nc(NC3CCCCC3)nc(NC3CCCCC3)n2)cc1`, inactive: 8.79 µM.
To `C=CCNC(=S)N1c2ccccc2NC(=O)CC1C` (stereo unspecified) belongs inactive: > 100 µM; to `Cc1nc(N)nc(N)c1CCCCc1ccc(N)cc1`, inactive: 7.85 µM; to `C=C1CC(COc2ccc3ccc(=O)oc3c2)(c2ccccc2)OC1=O` (stereo unspecified), inactive: 12 µM.
With `CCCCCCCCCCCCCC(=O)NCO`, the GI50 is inactive: > 100 µM.
With `N#CC(Cc1ccccc1Br)N(CCC1=CCCCC1)C(c1ccccc1)c1ccccc1` (stereo unspecified) the figure was inactive: 84.3 µM; with `C=C1C(=O)O[C@H]2[C@H]1[C@@H](OC(=O)C=C(C)C)CC1=C[C@@H](C[C@@]3(C)O[C@@H]23)OC1=O`, inactive: 12.1 µM.
With `CCOC(=O)CCC(NC(=O)c1ccc(NCc2ccc3nc(-c4ccccc4)c(Cl)nc3c2)c2ccccc12)C(=O)OCC` (stereo unspecified) the figure was inactive: > 100 µM; with `CCCCCCCCCCCCCC(=O)OC(/C=C/C(C)C)C(O)C(O)C(OC)C(=O)NC1CCCCN(C)C1=O` (stereo unspecified), inactive: 4.37 µM.
As for `N#CC1=C(N)N2C(=O)/C(=C/c3ccccc3O)N=C2S1`, the GI50 is inactive: 98.4 µM.
To `O=C(N/N=C(\C1=Nc2ccc(Cl)cc2NC1O)C(O)/C=C/c1ccccc1)c1ccncc1` (stereo unspecified) belongs inactive: > 100 µM; to `COC(=O)C1C(=O)C=CN([C@H](C)c2ccccc2)[C@@H]1Cc1ccc(OC)c(OCc2ccccc2)c1I` (stereo partly specified), inactive: 24.9 µM; to `Cc1ccc(NC(=O)CC(=O)n2nc(C)c(/N=N/c3cccc(C)c3)c2C)cc1`, inactive: > 100 µM.
To `COC(=O)[C@]12CC3C=CC1N(C3)C(CBr)c1c2n(S(=O)(=O)c2ccccc2)c2ccccc12` (stereo partly specified) belongs inactive: 73.6 µM.
Consider `COc1ccc(OC/C(N)=N/NC(=O)c2ccncc2)cc1`, for which the GI50 is inactive: > 100 µM.
To `O=C(O)C1C2CCC(O2)C1C(=O)N1CCCCC1` (stereo unspecified) belongs inactive: 23.3 µM; to `N#CC(C#N)=Cc1c(O)ccc2ccccc12`, inactive: 17.3 µM.
With `COc1ccc2c(c1OC)C(=O)O[C@@H]2[C@H]1c2cc3c(cc2CCN1C)OCO3` the figure was inactive: > 100 µM; with `Cc1c(CCCl)c(=O)n2c([nH]c3ccccc32)c1C#N`, inactive: 1.78 µM.
For `CNc1ncc(-c2nnnn2-c2ccccc2)c(CN(C)C)n1`, the GI50 was inactive: > 100 µM.
Regarding `C[C@H]1C=C2C(=O)O[C@H]3CC[C@@H](C1)[C@@]23O`, the GI50 is inactive: 4.45 µM.
On to `Cc1cc(C)c(/C=N/NS(=O)(=O)c2ccccc2)c(C)c1`, for which the GI50 is inactive: > 100 µM.
To `Oc1ccc2oc3c(O)c4ccccc4cc3c2c1` belongs inactive: 63.5 µM.
With `COc1ccc(-c2cc(-c3ccc(Nc4ccnc5cc(C(F)(F)F)ccc45)cc3)[nH]c(=O)c2C#N)cc1` the figure was inactive: > 100 µM; with `NCCc1ccc2oc3cc(=O)c4ccccc4c-3nc2c1`, inactive: 3.2 µM; with `COc1cc(CCNC2=CC(=O)c3ncccc3C2=O)ccc1O`, inactive: 3.41 µM.
Turning to `N#Cc1c(/C=C/c2ccccc2)c2c([nH]c1=S)CCCCC2`, the GI50 is inactive: > 100 µM.
To `Cc1cccc(C)c1NC(=O)C1=NC(=S)NC(c2ccccc2)C1c1nc2ccccc2s1` (stereo unspecified) belongs inactive: > 100 µM.
To `CS(=O)(=O)OCC1=C(COS(C)(=O)=O)C(=O)c2c(O)ccc(O)c2C1=O` belongs inactive: > 100 µM.
Take `Cc1cc(C)nc(NS(=O)(=O)c2ccc(NC(=O)c3ccc(Cl)c4c(Nc5ccc(S(=O)(=O)Nc6nc(C)cc(C)n6)cc5)c5ccccc5nc34)cc2)n1`: the GI50 is inactive: 3.65 µM.
With `CCOC(=O)C1C[C@H]2CO[C@H](c3ccccc3)N2C1=O` (stereo partly specified) the figure was inactive: > 100 µM; with `Cn1c2ccccc2c(=S)c2cc(NC(=O)CCCCC(=O)Nc3ccc4c(c3)c(=S)c3ccccc3n4C)ccc21`, inactive: > 100 µM.
With `O=c1c2ccccc2[nH]c(=S)n1-c1ccc(/N=N/c2cccc3c(O)cccc23)cc1` the figure was inactive: > 100 µM; with `COc1ccc(C2N(c3ccc(F)cc3)C(=O)N3C(c4ccc(OC)cc4)N(c4ccc(F)cc4)C(=O)N23)cc1` (stereo unspecified), inactive: > 100 µM; with `COc1ccc(Oc2cccc(/C=C3/C(=O)Nc4ccccc43)c2)cc1`, inactive: 16.9 µM.
As for `CC(/C=C/c1ccccc1)=N\NC(N)=S`, the GI50 is inactive: 45.2 µM.
For `FC(F)(F)C(C1=NC(C(F)(F)F)(C(F)(F)F)N=C(N2CCOCC2)O1)C(F)(F)F`, the GI50 is inactive: 40.7 µM.
Take `c1ccc(NNC2=NCCN2)cc1`: the GI50 is inactive: > 100 µM.
To `COC(=O)NC12CC3CC(CC(F)(C3)C1)C2` belongs inactive: > 100 µM; to `CC(=O)O[C@@H]1[C@@H](O)C2=C3[C@]4(C)[C@@H]1C(C)(C)C(=O)C[C@@H]4[C@]3(O)[C@H](OC(C)=O)[C@@]1(C[C@@H]1C)C2=O`, inactive: 17.9 µM.
Regarding `CCCCCCCCCCCCCC/C(C(=O)OC)=C(/O)C(=O)OCC`, the GI50 is inactive: > 100 µM.
As for `Nc1ccc(/N=N\c2ccc(-c3ccc(O)cc3)cc2)c2ccc(S(=O)(=O)O)cc12`, the GI50 was inactive: > 100 µM.
To `C/C(=N\NC(N)=S)c1cccs1.OB(O)c1ccccc1` belongs inactive: > 100 µM.
To `CC[C@@H]1C[C@H]2CC3c4[nH]c5ccc(O)cc5c4CCN(C2)C31` belongs inactive: > 100 µM; to `CC1CCC2CC(=O)OC([C@@H]3C(=O)O[C@@H](C4=CCCC4)C4C(C)CCC43)C12` (stereo partly specified), inactive: > 100 µM; to `COC1=CC(=O)[C@H]2[C@H](C)C(c3ccccc3)[C@@]2(C)C1=O` (stereo partly specified), inactive: > 100 µM.
On to `Cc1ccc2[nH]c3c4c5ccccc5nc-4c[nH]c3c2c1`, for which the GI50 was inactive: 16.3 µM.
With `COc1cc2c(cc1C)NC(=O)/C2=C/c1c(Cl)[nH]c2ccccc12` the figure was inactive: 13 µM; with `COC1CC2C3/C(=N/Nc4ccc([N+](=O)[O-])cc4[N+](=O)[O-])CCC2(C)C3C1` (stereo unspecified), inactive: > 100 µM.
To `CC1=C(C(=O)NNC(=O)C[N+](C)(C)C)CC(C(=O)NNC(=O)C[N+](C)(C)C)=C(C)N1` belongs inactive: > 100 µM; to `Cc1c2cc[n+](Cc3ccc(I)cc3)cc2c(C)c2c1[nH]c1ccccc12`, active: 1.01 µM; to `COc1ccc(-c2oc3ccc(C)cc3c(=O)c2O)cc1`, inactive: 59.6 µM.
